Drawing on paper PMC5668318, this text covers binding for 4 molecules.

Amino acid sequences for entries named in this document (tags omitted). A change or cut given only in a name is not applied to a line headed by its entry.
UniProt Q9W2S2: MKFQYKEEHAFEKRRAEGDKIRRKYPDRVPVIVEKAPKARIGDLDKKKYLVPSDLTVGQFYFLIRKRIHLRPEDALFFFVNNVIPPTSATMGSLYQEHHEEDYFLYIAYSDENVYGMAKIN

The target in assay [1] is T1, 3XFLAG-Kenny (wild type) (Drosophila) (UniProt Q9GYV5).
T1 sequence: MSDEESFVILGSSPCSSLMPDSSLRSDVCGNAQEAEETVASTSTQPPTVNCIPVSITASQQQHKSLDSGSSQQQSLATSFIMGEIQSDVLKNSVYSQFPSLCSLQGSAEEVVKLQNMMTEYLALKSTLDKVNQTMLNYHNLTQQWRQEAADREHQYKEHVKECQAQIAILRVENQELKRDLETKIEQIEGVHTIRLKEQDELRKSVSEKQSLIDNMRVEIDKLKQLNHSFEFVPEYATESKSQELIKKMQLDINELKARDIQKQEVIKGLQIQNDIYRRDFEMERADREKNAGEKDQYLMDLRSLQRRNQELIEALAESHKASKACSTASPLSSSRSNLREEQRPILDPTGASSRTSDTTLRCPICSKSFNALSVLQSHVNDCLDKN
The experiment in a line: co-IP; anti-FLAG M2-agarose immunoprecipitation from lysates of transfected S2R+ cells, 4 °C overnight, elution with 3XFLAG peptide, blot for GFP.

For assay [2], the target named is GST-Atg8a LDS mutant (K48A/Y49A) (Drosophila) (UniProt Q9W2S2). The experiment in a line: pull-down; 1-10 µg GST fusion protein on glutathione-Sepharose beads with 10 µL in vitro translated 35S-methionine-labelled protein; NETN buffer (50 mM Tris pH 8.0, 100 mM NaCl, 6 mM EDTA, 6 mM EGTA, 0.5% Nonidet P-40, 1 mM DTT), 1 h at 4 °C; autoradiography; only the target purified.

For assay [3], the target named is GST-Atg8a (wild type) (Drosophila) (UniProt Q9W2S2). The assay is described as above.
Assay [4] has as its target T2, GFP-Kenny F7A/L10A (Drosophila) (UniProt Q9GYV5).
T2 sequence: T1 sequence with F7A, L10A
The experiment in a line: co-IP; anti-GFP immunoprecipitation (Abcam Ab290, G beads) from lysates of flies expressing GFP-Kenny along with mCherry-ird5; TNT lysis buffer, 2 h at 4 °C.

Assay [5] deals with T3, GFP-Kenny (wild type) (Drosophila) (UniProt Q9GYV5).
T3 sequence: T1 sequence
The description is as above.

In assay [6] the target is T4, GST-Kenny (wild type) (Drosophila) (UniProt Q9GYV5).
T4 sequence: T1 sequence
The experiment in a line: pull-down; 1-10 µg GST fusion protein on glutathione-Sepharose beads with 10 µL in vitro translated 35S-methionine-labelled protein; NETN buffer (50 mM Tris pH 8.0, 100 mM NaCl, 6 mM EDTA, 6 mM EGTA, 0.5% Nonidet P-40, 1 mM DTT), 1 h at 4 °C; autoradiography; only the target purified.

Substitutions are numbered along the chain they refer to. No constants are given. Whether binding was seen depends on the method and setting. Binding seen in cells or lysates may run through a third protein. Some entries that bind do so weakly or less than the wild type. Tags and fused reporters may be left off the sequences shown.

Consider eGFP-Atg8a (from UniProt Q9W2S2 1-121), for which, in assay [1], the binding result is “binds”.

B1: 35S-Myc-Kenny (wild type) (protein, UniProt Q9GYV5 1-387)
chain: T1 sequence
modifications: 35S-methionine labelled
Turning to B1, the figures for the binding entry in assay [2] and in assay [3] were “no binding” and “binds”, respectively.

B2: mCherry-ird5 (protein, UniProt Q9VEZ5 1-751)
chain: MITVVFCFSDCHGGIQILGRMSSVNKIKLNENNKMHSFGNWERCRNLGEGGFGLVIHWRNRTTGREIATKHIKEMGALSADQQVKLSERWNKELNWSRQFKNFPHIVAGVDIEDPDFLEYLNGMFSAKLPVIVLEYCNGGDVRKRLQSPENANGLTEFEVRQILGALRKALHFLHSQCGICHRDLKPDNIVIQRGVDGKKIYKLTDFGLARGTPDQTMVQSVVGTRHYYAPEVVENGFYNSTVDLWSFGVIAYELVTGELPFIPHQTLKNIILNLIKKPAKCIAITEDPEDNTRFVNQFELPQTHHLSRPWAAQFTKWLASPLNSNYKERGQLAANNVPVVFADLDKILNMNVLTIFAVNNCERLEYAVSAEMTMKDLIALIVLDTGMDEKELYFVLPTSHPHKTITPKSTPLQLYVEEWSDTSKDSRKWTKRSNPPVMLYIFQVKKECDYKIPEPILSILSRKFIANKFKTKERWLQKRVVLDMLYVLTKEQARYEMLVSGINERALSLEDEMMENSFIDSIDKQRIIISFAYDQLTSLLKEAQAKIPSRQLISSAQWEKLNRNYNFIIQSAKSIRSFLEACLREAKDMVKTTNQLRKEVCEKDLFDCARFYKKYLCNGAIISPSELNNDAEEFAKSRFKLYNEGEARHLPKSIDHMHYLYFKTKESIPVLLQQFCDIKKEIFQINLQMLMSASSTPPPKLELSAAMDRLAISSGSPSSDPFDSLRTINAIEEAERINNILVNEMKIDHY
For the molecule B2, the binding entry in assay [4] and in assay [5] was “binds” each time.

B3: 35S-Myc-ird5 (protein, UniProt Q9VEZ5 1-751)
chain: B2 chain
modifications: 35S-methionine labelled
As for B3, the binding result in assay [6] is “binds”.
